Results taken from PubChem BioAssay AID485294 (National Center for Advancing Translational Sciences (NCATS), 2010).
Out of some 370,000 compounds screened, about 150 (0.041%) were called active. The inconclusive results got no clear call from the source; some entries with a clear call stand among them for comparison. Calls come from the whole dose curve; as a rule, active = well fitted inhibition curve with a large enough effect; inconclusive = small, poorly fitted or top-dose-only effect; inactive = flat fitted curve, though single readings scatter. No potency is given beside an inconclusive call; the fits are too rough.
Note: nearly all actives have a fitted effect of over 25% in size.
Potency is the fitted concentration of half-maximal effect; tags give direction and shape of the fitted curve.

The compounds below were run against Beta-lactamase (Escherichia coli (strain K12)) (UniProt P00811) (assay: qHTS Inhibitors of AmpC Beta-Lactamase (assay with detergent)). Conditions: AmpC hydrolysis of nitrocefin, absorbance 480 nm, 0.01% Triton; series mostly up to 114 µM.
Sequence of UniProt P00811 (P00811 whole entry, looked up): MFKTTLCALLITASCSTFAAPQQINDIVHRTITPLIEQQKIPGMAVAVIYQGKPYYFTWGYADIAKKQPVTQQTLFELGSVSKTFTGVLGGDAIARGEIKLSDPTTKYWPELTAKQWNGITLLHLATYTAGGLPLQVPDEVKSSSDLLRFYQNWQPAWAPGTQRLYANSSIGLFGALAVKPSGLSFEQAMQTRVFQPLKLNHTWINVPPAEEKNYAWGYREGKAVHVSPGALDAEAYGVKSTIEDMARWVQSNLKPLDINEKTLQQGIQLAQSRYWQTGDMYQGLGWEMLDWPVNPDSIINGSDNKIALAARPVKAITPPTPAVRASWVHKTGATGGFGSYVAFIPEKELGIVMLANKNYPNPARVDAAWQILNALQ
How it was run: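 AmpC (5.3 nM in the dispensed reagent) in 20 mM phosphate pH 7.0 with 0.01% (detergent screen) or 0.0001% Triton X-100 was preincubated with compounds for 15 min at room temperature. Nitrocefin was then added from an 800 uM solution, and hydrolysis was followed at 480 nm.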
CC(=O)c1ccc(S(=O)(=O)N(C)CCCC(=O)N(C)Cc2c(F)cccc2Cl)cc1 was tested, and the Potency was “inactive”.
For COc1cc(OC)cc(C(=O)Nn2cc(C(=O)N3CCN(C)CC3)c3ccccc3c2=O)c1, the Potency was inconclusive [inhibitor, full curve, poor fit].
COc1ccc(NC(=O)C(C)N2C(=O)C3CC=C(Cl)CC3C2=O)cc1 (stereo not drawn) was tested, and the Potency was inconclusive [inhibitor, partial curve, poor fit].
For Cc1ccc(C(=O)OCC(=O)Nc2cc(C(C)(C)C)nn2-c2ccccc2)c(O)c1, the Potency was inconclusive [inhibitor, full curve, poor fit].
Nc1nn(S(=O)(=O)c2cccc3nsnc23)cc1-c1ccc(Br)cc1 was tested, and the Potency was inconclusive [inhibitor, partial curve].
For CC(=O)c1ccc(NC(=O)CSc2ccsc2[N+](=O)[O-])cc1, the Potency was “inactive”.
O=C(N/N=C/c1cccc(OCc2ccccc2)c1)c1ccc(Br)o1 was tested, and the Potency was inconclusive [inhibitor, full curve].
For ON/C=N/C(=S)Nc1ncc(C(F)(F)F)cc1Cl, the Potency was inconclusive [inhibitor, full curve].
For CC(=O)c1c(C(C)=O)c(C)n(Cc2ccccc2)c1C, the Potency was inconclusive [inhibitor, full curve, poor fit].
CC(C)CNC(=O)CC(c1ccccc1)c1ccccc1 was tested, and the Potency was “inactive”.
O=C(O)c1cccc(N/N=C/c2ccc(-c3ccccc3)cc2)c1 was tested, and the Potency was inconclusive [inhibitor, single point].
For Cc1cc(C(=O)N2CCN(c3cc(Cl)ccc3C)CC2)on1, the Potency was inconclusive [inhibitor, full curve].
In the case of Cc1cc(-c2cccs2)n[nH]1, the Potency is reported as inconclusive [inhibitor, full curve, poor fit].
In the case of COc1cc(C)ccc1OCC(=O)Nc1ccccc1N1CCOCC1, the Potency is reported as inconclusive [inhibitor, full curve, poor fit].
For O=C(CSc1nc(=O)n(Cc2ccccn2)c2c1CCC2)Nc1ccc(F)cc1F, the Potency was inconclusive [inhibitor, full curve, poor fit].
For CCOC(=O)c1cc2sc(C)cc2n1CC(=O)NCCc1ccccc1, the Potency was inconclusive [inhibitor, full curve, poor fit].
CN1CCN(C2=Cc3ccccc3Sc3cc(F)c(Cl)cc32)CC1 was tested, and the Potency was inconclusive [inhibitor, single point].
With COCCNC(=S)NNC(=O)c1ccc(-n2cnnn2)cc1 the Potency was inconclusive [inhibitor, partial curve].
With CC(=O)NS(=O)(=O)c1cccnc1Nc1cccc(Cl)c1 the Potency was inconclusive [inhibitor, full curve, poor fit].
For Cc1ccc(C(=O)NC(=S)Nc2ccccc2N2CCCC2)cc1[N+](=O)[O-], the Potency was “inactive”.
With O=C(CN1CCN(Cc2ccc(Cl)cc2)C1=O)NCCCN1CCOCC1 the Potency was inconclusive [inhibitor, full curve, poor fit].
With CCOC(=O)c1c(NCc2ccc3c(c2)OCO3)c2ccccc2[nH]c1=O the Potency was inconclusive [inhibitor, full curve, poor fit].
O=C(/C=C/c1ccccc1F)N1CCN(c2ccccn2)CC1 was tested, and the Potency was “inactive”.
CC1(C)NC(=O)N(CC(=O)OCC(=O)Nc2cccc(F)c2)C1=O was tested, and the Potency was inconclusive [inhibitor, single point].
With O=C(N/N=C/c1oc(O)c2ccccc12)c1ccccc1 the Potency was inconclusive [inhibitor, full curve, poor fit].
With COC(=O)c1ccc(C(=S)N2CCOCC2)cc1 the Potency was “inactive”.
In the case of Cc1cc(=O)oc(C)c1C(=O)NCc1ccccc1, the Potency is reported as inconclusive [inhibitor, partial curve].
CN(C(=O)COC(=O)CCc1c[nH]c2ccccc12)C(c1ccccc1)c1ccccc1 was tested, and the Potency was “inactive”.
For Cc1cc(C)c(NC(=O)CSc2nc(=O)n(Cc3ccncc3)c3c2CCC3)c(C)c1, the Potency was “inactive”.
With COc1cc2c(cc1OC)-c1cc3ccc(OC)c(OC)c3c[n+]1CC2 the Potency was inconclusive [inhibitor, full curve, poor fit].
For Cc1ccc(CN(C)CC(=O)NC(C)c2ccccc2)cc1 (stereo not drawn), the Potency was inconclusive [inhibitor, partial curve].
With CCc1nn(CC(=O)N2CCN(c3cccc(C)c3)C(C)C2)c(=O)c2cc3sccc3n12 (stereo not drawn) the Potency was “inactive”.
With CCOCCCNC(=O)C(c1ccc(C)cc1)N(Cc1ccc2c(c1)OCO2)C(=O)c1ccccc1O (stereo not drawn) the Potency was inconclusive [inhibitor, partial curve, poor fit].
For O=C(NCCc1ccc(F)cc1)Nc1ccc2c(c1)OCO2, the Potency was “inactive”.
COc1cc(C(C)=O)ccc1OCC(O)CN1CCN(c2cc(C)cc(C)c2)CC1 (stereo not drawn) was tested, and the Potency was inconclusive [inhibitor, full curve].
With CCSc1nnc(C)c(=O)n1COC(=O)c1ccc(S(=O)(=O)N2CCCC2)cc1 the Potency was inconclusive [inhibitor, full curve].
With COc1ccc(S(=O)(=O)Nc2nc(C(F)(F)F)cs2)cc1 the Potency was inconclusive [inhibitor, single point].
In the case of Cc1cc2ncn(/N=C/c3cc(Br)ccc3O)c2cc1C, the Potency is reported as “inactive”.
Fc1ccc(-c2onc3ccc(C4OCCO4)cc23)cc1 was tested, and the Potency was inconclusive [inhibitor, full curve, poor fit].
In the case of COC(=O)C(CC(=O)c1ccc(Br)cc1)n1nc(C)cc1C (stereo not drawn), the Potency is reported as “inactive”.
In the case of O=C(CN(C1CCCCC1)C1CCCCC1)N1CCc2ccccc2C1, the Potency is reported as inconclusive [inhibitor, single point].
CCC(=O)c1ccc(OCc2ccccc2)c(OC)c1 was tested, and the Potency was “inactive”.
For COc1cccc(C(=O)Nc2ccc3nc4n(c(=O)c3c2)CCCC4)c1, the Potency was inconclusive [inhibitor, full curve].
In the case of OC(COCCOc1ccc(Br)cc1)CN1CCN(Cc2ccccc2)CC1 (stereo not drawn), the Potency is reported as inconclusive [inhibitor, partial curve].
For Cc1nn(-c2ccccn2)c2c1C(c1c(F)cccc1Cl)C1=C(N2)c2ccccc2C1=O (stereo not drawn), the Potency was “inactive”.
In the case of CN(CC(=O)Nc1ccc(F)c(F)c1F)C(=O)c1ccc2c(c1)OCCO2, the Potency is reported as inconclusive [inhibitor, single point].
With CCN(Cc1ccccc1)C(c1ccc(C)cc1)c1nnnn1C(C)(C)CC (stereo not drawn) the Potency was inconclusive [inhibitor, single point].
O=C(NCCN1CCOCC1)c1ccc(-c2ccccc2)cc1 was tested, and the Potency was “inactive”.
For CC(=O)Nc1ccc(S(=O)(=O)NC2(C(F)(F)F)NC(=O)N(Cc3ccccc3)C2=O)cc1 (stereo not drawn), the Potency was inconclusive [inhibitor, partial curve, poor fit].
Cc1ccc(Cn2ncc3c(NCCCN4CCOCC4)ncnc32)cc1 was tested, and the Potency was inconclusive [inhibitor, full curve, poor fit].
For COc1ccc(NC(=S)NCc2ccccc2Cl)c(OC)c1, the Potency was inconclusive [inhibitor, full curve, poor fit].
With O=C(CNS(=O)(=O)c1ccc(Br)cc1)NC1CCCC1 the Potency was inconclusive [inhibitor, single point].
With CC(C)(C)c1cc(CSC(=S)NC2CCS(=O)(=O)C2)c(Br)c(C(C)(C)C)c1 (stereo not drawn) the Potency was inconclusive [inhibitor, full curve, poor fit].
CCOC(=O)Cn1c(C)c(Br)c(=O)c2cccc(C)c21 was tested, and the Potency was inconclusive [inhibitor, partial curve].
COc1ccccc1NS(=O)(=O)c1cc(NC(=O)CCC2CCCC2)ccc1N1CCOCC1 was tested, and the Potency was “inactive”.
For O=C1CCCC(=O)C1C1c2ccccc2CCN1C(=O)CCl (stereo not drawn), the Potency was “inactive”.
CNC(=O)c1ccc(-n2cccn2)nc1 was tested, and the Potency was inconclusive [inhibitor, full curve, poor fit].
For Cc1ccccc1NS(=O)(=O)c1ccc(C)c(C(N)=O)c1, the Potency was inconclusive [inhibitor, full curve, poor fit].
With COc1ccc(NC(=O)NNC(=O)CCc2ccc(O)c(O)c2)cc1OC the Potency was inconclusive [inhibitor, partial curve, poor fit].
In the case of Cc1cc(C)c(OCC(=O)OCC(=O)N2c3ccccc3CC2C)c(C)c1 (stereo not drawn), the Potency is reported as inconclusive [inhibitor, single point].
COc1cccc(-c2nc(Cn3c(=O)cc(C)c4c(C)nn(-c5ccccc5)c43)c(C)o2)c1OC was tested, and the Potency was “inactive”.
In the case of C=CCn1c(-c2ccc(C)cc2)nc2ccccc21, the Potency is reported as inconclusive [inhibitor, full curve, poor fit].
CC(C)(C)c1ccc(C(=O)NCC(c2ccco2)S(=O)(=O)c2ccccc2)cc1 (stereo not drawn) was tested, and the Potency was “inactive”.
In the case of NC(=O)C1CCN(C(=O)CN(c2cccc(C(F)(F)F)c2)S(=O)(=O)c2ccccc2)CC1, the Potency is reported as inconclusive [inhibitor, partial curve, poor fit].
With Oc1oc(-c2ccccc2)nc1C=NCc1ccncc1 the Potency was inconclusive [inhibitor, partial curve, poor fit].
In the case of O=C(CN(Cc1ccc(Br)cc1)S(=O)(=O)c1ccccc1)NCc1cccnc1, the Potency is reported as “inactive”.
With CC(C)c1ccc(/C=N/Nc2cc(N3CCOCC3)nc(N3CCOCC3)n2)cc1 the Potency was inconclusive [inhibitor, single point].
For O=C(Cn1c(=O)sc2ccccc21)Nc1ccc(O)cc1, the Potency was inconclusive [inhibitor, single point].
